# Data reported in the supplement of paper PMC10037445.
# The full ranking holds about 2,900 compounds; the median of “NF-kB SEAP reporter activity, fold change vs agonist alone” is about 0.99, and the highest 2% start at about 2.6. This is one part of the list.
# Experiments:
# RAW-Dual [1] = test: NF-kB SEAP reporter activity, fold change vs agonist alone; cytotoxicity flag (confluency mask): not cytotoxic; higher = enhanced NF-kB activity
# Method in brief: (§1)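 Reporter activity is given as fold change relative to agonist-alone wells. To measure it, 50 nL of library stock was pin-tooled onto RAW-Dual macrophages (50,000 cells/well, DMEM, 384-well plates), a PRR agonist followed 1 h later, and cells stayed at 37 °C, 5% CO2. Twenty hours on, supernatant was assayed for IRF (QuantiLuc luminescence) and NF-κB (QuantiBlue, 620 nm absorbance), and wells under 70% of agonist-control IncuCyte confluency in both mask sets were marked cytotoxic.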
# RAW-Dual [2] = test: NF-kB SEAP reporter activity, fold change vs agonist alone; higher = enhanced NF-kB activity; conditions: library stock concentration (final ~1000-fold dilution): 10 mM
# Method in brief: as §1
# RAW-Dual [3] = test: NF-kB SEAP reporter activity, fold change vs agonist alone; cytotoxicity flag (confluency mask): cytotoxic (confluency <70% of control); higher = enhanced NF-kB activity
# Method in brief: as §1
# [4] = agonist: ODN 1826 (TLR9) 0.5 ug/mL
# [5] = agonist: Pam2CSK4 (TLR2/6) 0.1 ug/mL
# [6] = agonist: Pam3CSK4 (TLR2/1) 0.1 ug/mL
# [7] = cytotoxicity flag (confluency mask): not cytotoxic, agonist: Imiquimod (TLR7) […]
# [8] = cytotoxicity flag (confluency mask): not cytotoxic, agonist: MPLA (TLR4) […]
# [9] = cytotoxicity flag (confluency mask): cytotoxic (confluency <70% of control), agonist: Imiquimod (TLR7) […]
# [10] = cytotoxicity flag (confluency mask): cytotoxic (confluency <70% of control), agonist: MPLA (TLR4) […]
smiles,measurement,setting,value
N#C/C(=C\c1ccc(O)cc1)C(=O)O (library stock concentration (final ~1000-fold dilution): 10 mM),NF-kB SEAP reporter activity,RAW-Dual [1]; agonist: LPS (TLR4) 0.1 ug/mL,0.909
same,NF-kB SEAP reporter activity,RAW-Dual [1]; [4],0.945
same,NF-kB SEAP reporter activity,RAW-Dual [1]; [5],0.817
same,NF-kB SEAP reporter activity,RAW-Dual [1]; [6],1.13
N#C/C(=C\c1ccc(O)cc1)C(=O)O,NF-kB SEAP reporter activity,RAW-Dual [2]; [7],0.863
same,NF-kB SEAP reporter activity,RAW-Dual [2]; [8],0.999
CCN(C)C(=O)Oc1cccc(C(C)N(C)C)c1 (centres undefined) (library stock concentration (final ~1000-fold dilution): 10 mM),NF-kB SEAP reporter activity,RAW-Dual [1]; agonist: LPS (TLR4) 0.1 ug/mL,1.01
same,NF-kB SEAP reporter activity,RAW-Dual [1]; [4],0.865
same,NF-kB SEAP reporter activity,RAW-Dual [1]; [5],1.06
same,NF-kB SEAP reporter activity,RAW-Dual [1]; [6],1.07
CCN(C)C(=O)Oc1cccc(C(C)N(C)C)c1 (centres undefined),NF-kB SEAP reporter activity,RAW-Dual [2]; [8],1
O=C(CBr)c1ccc(O)cc1,NF-kB SEAP reporter activity,RAW-Dual [2]; [7],0.973
same,NF-kB SEAP reporter activity,RAW-Dual [2]; [8],0.895
O=C(CBr)c1ccc(O)cc1 (library stock concentration (final ~1000-fold dilution): 10 mM),NF-kB SEAP reporter activity,RAW-Dual [1]; agonist: LPS (TLR4) 0.1 ug/mL,1.01
same,NF-kB SEAP reporter activity,RAW-Dual [1]; [4],0.838
same,NF-kB SEAP reporter activity,RAW-Dual [1]; [5],1.36
same,NF-kB SEAP reporter activity,RAW-Dual [1]; [6],1.15
O=C1C=CCC2C3CCCN4CCCC(CN12)C34 (centres undefined) (library stock concentration (final ~1000-fold dilution): 10 mM),NF-kB SEAP reporter activity,RAW-Dual [1]; agonist: LPS (TLR4) 0.1 ug/mL,1.08
same,NF-kB SEAP reporter activity,RAW-Dual [1]; [4],0.973
same,NF-kB SEAP reporter activity,RAW-Dual [1]; [5],0.975
same,NF-kB SEAP reporter activity,RAW-Dual [1]; [6],1.26
O=C1C=CCC2C3CCCN4CCCC(CN12)C34 (centres undefined),NF-kB SEAP reporter activity,RAW-Dual [2]; [7],0.892
same,NF-kB SEAP reporter activity,RAW-Dual [2]; [8],0.902
CC1OC(OC2CC(O)C3(CO)C4C(O)CC5(C)C(C6=CC(=O)OC6)CCC5(O)C4CCC3(O)C2)C(O)C(O)C1O.O.O.O.O.O.O.O.O (centres undefined),NF-kB SEAP reporter activity,RAW-Dual [2]; [7],0.834
same,NF-kB SEAP reporter activity,RAW-Dual [2]; [8],1.03
CC1OC(OC2CC(O)C3(CO)C4C(O)CC5(C)C(C6=CC(=O)OC6)CCC5(O)C4CCC3(O)C2)C(O)C(O)C1O.O.O.O.O.O.O.O.O (centres undefined) (library stock concentration (final ~1000-fold dilution): 10 mM),NF-kB SEAP reporter activity,RAW-Dual [1]; agonist: LPS (TLR4) 0.1 ug/mL,1.1
same,NF-kB SEAP reporter activity,RAW-Dual [1]; [4],0.963
same,NF-kB SEAP reporter activity,RAW-Dual [1]; [5],1.06
same,NF-kB SEAP reporter activity,RAW-Dual [1]; [6],1.12
COc1cc(C(=O)OC2C3C=COC(OC4OC(CO)C(O)C(O)C4O)C3C3(CO)OC23)ccc1O (centres undefined),NF-kB SEAP reporter activity,RAW-Dual [2]; [7],0.884
same,NF-kB SEAP reporter activity,RAW-Dual [2]; [8],1.07
COc1cc(C(=O)OC2C3C=COC(OC4OC(CO)C(O)C(O)C4O)C3C3(CO)OC23)ccc1O (centres undefined) (library stock concentration (final ~1000-fold dilution): 10 mM),NF-kB SEAP reporter activity,RAW-Dual [1]; agonist: LPS (TLR4) 0.1 ug/mL,1.37
same,NF-kB SEAP reporter activity,RAW-Dual [1]; [4],1.13
same,NF-kB SEAP reporter activity,RAW-Dual [1]; [5],1.13
same,NF-kB SEAP reporter activity,RAW-Dual [1]; [6],1
CC(C)OC(=O)C(C)NP(=O)(COC(C)Cn1cnc2c(N)ncnc21)Oc1ccccc1 (centres undefined) (library stock concentration (final ~1000-fold dilution): 10 mM),NF-kB SEAP reporter activity,RAW-Dual [1]; agonist: LPS (TLR4) 0.1 ug/mL,1.04
same,NF-kB SEAP reporter activity,RAW-Dual [1]; [4],0.921
same,NF-kB SEAP reporter activity,RAW-Dual [1]; [5],1.23
same,NF-kB SEAP reporter activity,RAW-Dual [1]; [6],1.29
CC(C)OC(=O)C(C)NP(=O)(COC(C)Cn1cnc2c(N)ncnc21)Oc1ccccc1 (centres undefined),NF-kB SEAP reporter activity,RAW-Dual [2]; [7],0.979
same,NF-kB SEAP reporter activity,RAW-Dual [2]; [8],1.1
COC(=O)Nc1nc2ccccc2[nH]1 (library stock concentration (final ~1000-fold dilution): 10 mM),NF-kB SEAP reporter activity,RAW-Dual [1]; agonist: LPS (TLR4) 0.1 ug/mL,0.882
same,NF-kB SEAP reporter activity,RAW-Dual [1]; [4],0.973
same,NF-kB SEAP reporter activity,RAW-Dual [1]; [5],0.88
same,NF-kB SEAP reporter activity,RAW-Dual [1]; [6],1
COC(=O)Nc1nc2ccccc2[nH]1,NF-kB SEAP reporter activity,RAW-Dual [2]; [7],1.02
same,NF-kB SEAP reporter activity,RAW-Dual [2]; [8],1.02
C[N+](C)(C)CCCCCCCCCC[N+](C)(C)C (library stock concentration (final ~1000-fold dilution): 10 mM),NF-kB SEAP reporter activity,RAW-Dual [1]; agonist: LPS (TLR4) 0.1 ug/mL,1.32
same,NF-kB SEAP reporter activity,RAW-Dual [1]; [4],0.97
same,NF-kB SEAP reporter activity,RAW-Dual [1]; [5],1.22
same,NF-kB SEAP reporter activity,RAW-Dual [1]; [6],1.13
C[N+](C)(C)CCCCCCCCCC[N+](C)(C)C,NF-kB SEAP reporter activity,RAW-Dual [2]; [7],0.934
same,NF-kB SEAP reporter activity,RAW-Dual [2]; [8],1.02
O=C(O)CNC(=O)c1c(O)c2ccccc2n(Cc2ccccc2)c1=O,NF-kB SEAP reporter activity,RAW-Dual [2]; [7],1
same,NF-kB SEAP reporter activity,RAW-Dual [2]; [8],1.04
O=C(O)CNC(=O)c1c(O)c2ccccc2n(Cc2ccccc2)c1=O (library stock concentration (final ~1000-fold dilution): 10 mM),NF-kB SEAP reporter activity,RAW-Dual [1]; agonist: LPS (TLR4) 0.1 ug/mL,1.37
same,NF-kB SEAP reporter activity,RAW-Dual [1]; [4],1.02
same,NF-kB SEAP reporter activity,RAW-Dual [1]; [5],1.19
same,NF-kB SEAP reporter activity,RAW-Dual [1]; [6],1.13
Cl.Cl.Fc1ccc(C(OCCN2CCN(CCCc3ccccc3)CC2)c2ccc(F)cc2)cc1 (library stock concentration (final ~1000-fold dilution): 10 mM),NF-kB SEAP reporter activity,RAW-Dual [3]; agonist: LPS (TLR4) 0.1 ug/mL,0.46
same,NF-kB SEAP reporter activity,RAW-Dual [3]; [4],0.236
same,NF-kB SEAP reporter activity,RAW-Dual [3]; [5],0.361
same,NF-kB SEAP reporter activity,RAW-Dual [3]; [6],0.301
Cl.Cl.Fc1ccc(C(OCCN2CCN(CCCc3ccccc3)CC2)c2ccc(F)cc2)cc1,NF-kB SEAP reporter activity,RAW-Dual [2]; [9],1.8
same,NF-kB SEAP reporter activity,RAW-Dual [2]; [10],0.692
CCC12C=CCN3CCC4(C(=C(C(=O)OC)C1)Nc1ccccc14)C32 (centres undefined) (library stock concentration (final ~1000-fold dilution): 10 mM),NF-kB SEAP reporter activity,RAW-Dual [1]; agonist: LPS (TLR4) 0.1 ug/mL,0.997
same,NF-kB SEAP reporter activity,RAW-Dual [1]; [4],0.986
same,NF-kB SEAP reporter activity,RAW-Dual [1]; [5],0.9
same,NF-kB SEAP reporter activity,RAW-Dual [1]; [6],1.52
CCC12C=CCN3CCC4(C(=C(C(=O)OC)C1)Nc1ccccc14)C32 (centres undefined),NF-kB SEAP reporter activity,RAW-Dual [2]; [7],1.19
same,NF-kB SEAP reporter activity,RAW-Dual [2]; [8],1.94
O=C(CBr)N1CC([N+](=O)[O-])([N+](=O)[O-])C1,NF-kB SEAP reporter activity,RAW-Dual [2]; [9],0.542
same,NF-kB SEAP reporter activity,RAW-Dual [2]; [10],0.295
O=C(CBr)N1CC([N+](=O)[O-])([N+](=O)[O-])C1 (library stock concentration (final ~1000-fold dilution): 10 mM),NF-kB SEAP reporter activity,RAW-Dual [3]; agonist: LPS (TLR4) 0.1 ug/mL,0.335
same,NF-kB SEAP reporter activity,RAW-Dual [3]; [4],0.252
same,NF-kB SEAP reporter activity,RAW-Dual [3]; [5],0.0912
same,NF-kB SEAP reporter activity,RAW-Dual [3]; [6],0.189
O=C(OC1CC2CCC(C1)[N+]21CCCC1)C(O)(c1ccccc1)c1ccccc1 (centres undefined),NF-kB SEAP reporter activity,RAW-Dual [2]; [7],1.1
same,NF-kB SEAP reporter activity,RAW-Dual [2]; [8],0.947
